Switch fluorescence ratio data for 67 sequences are collected here from the supplement of paper PMC10126150.

Values marked as one replicate rest on one cluster of the flow cell; about a third of the high ones do not repeat.

This data set relates to ATP. Description: switch fluorescence ratio, 500 uM ATP over buffer (Cy3 cluster intensity, sum of 5 cycles each) (fold (ratio)); higher = stronger signal-on switching upon ATP binding; sequences stand for … in TCGTCGGCAGCGTCAGATGTGTATAAGAGACAGTTTTTTTTTTTTTTTTTTTTTTTTT…TC. The note with it: aptamer strand: ATP DNA aptamer (quencher-CACCTGGGGGAGTATTGCGGAGGAAGG + anchor), 100 nM annealed; ATP concentration: 500 uM; one replicate. The method in brief: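 The fluorescence ratio divides summed target-cycle Cy3 intensity by summed buffer-cycle Cy3 intensity for each cluster and is averaged per switch-domain sequence. Cy3-labelled switching-strand clusters on a modified Illumina MiSeq flow-cell were annealed to 100 nM quencher-labelled ATP aptamer, then imaged in selection buffer and again after 15 min with 500 uM ATP at 22 °C. Five such cycles were run, with NaOH stripping and re-annealing between them, and clusters outside 100-1000 RFU were excluded.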
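Also: ATP exposure 15 min at 22 °C before imaging.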

Consider CTGCAACGTA, for which the switch fluorescence ratio turned out to be 1.11.
The figure for GCAAGTGCTG is 1.01.
The figure for TGGTACGCAT is 1.34; for ATGCTATATA it is 1.04.
On to GATTGAGCCG, for which the switch fluorescence ratio came out at 1.01.
On to CCAGCTGGAA, for which the switch fluorescence ratio was determined as 1.01.
Next, TATGGCAATG: 1.03; CAAATTTTTC: 1.02; GGCACGGGTT: 1.01.
With GCTTGACTTT, the switch fluorescence ratio is 0.94.
Next, TAGGCGGGCA: 1.03; CGTCAGTTGC: 1.11; GAGATCATCC: 0.972.
With TACCAATCAG, the switch fluorescence ratio is 0.996.
As for CGCTACCGGG, the switch fluorescence ratio came out at 1.15.
As to CTCACGGTAT, the switch fluorescence ratio amounted to 1.27.
For GCTCTTCTGC, the switch fluorescence ratio was found to be 1.02.
As to CCTGGTAATT, the switch fluorescence ratio was 1.03.
For the sequence TACCCTACAG, the switch fluorescence ratio stood at 1.22.
Consider GTGTTGAGTG, for which the switch fluorescence ratio worked out at 1.03.
Take TCTGATGGAG: the switch fluorescence ratio is 1.04.
Next, CGGAAGAAAA: 0.974.
The figure for TATTAA is 1.01; for TTAGGCTTAT it is 0.951.
ACCCGTTTGA: the switch fluorescence ratio is 1.02.
With CCCTTCGTTT, the switch fluorescence ratio is 1.08.
On to ACGCCCTTCG, for which the switch fluorescence ratio was 1.19.
For the sequence CCGGGGACAT, the switch fluorescence ratio stood at 1.07.
In the case of TTAGAATTGG, the switch fluorescence ratio worked out at 1.04.
Consider AACAGATTCT, for which the switch fluorescence ratio was determined as 0.961.
In the case of AGCTGTGGTC, the switch fluorescence ratio is 1.04.
As for GGTTATATCT, the switch fluorescence ratio is 1.
With CACACTCAGA, the switch fluorescence ratio came out at 1.04.
For ATCCCGTATA, the switch fluorescence ratio is 1.04.
With TGTGTAAAAA, the switch fluorescence ratio stood at 0.937.
Turning to AGATAAATTA, the switch fluorescence ratio is 0.978.
For the sequence ATCATGTGCC, the switch fluorescence ratio came to 0.993.
On to TTCATGTGCT, for which the switch fluorescence ratio came to 0.995.
In the case of GCTGTACAGC, the switch fluorescence ratio was found to be 0.922.
Next, CTGTCATTGG: 1.04; TCGGTACGCT: 1.03; ACTAGTATCC: 0.958.
Consider ATTAAATCCA, for which the switch fluorescence ratio was 0.992.
Turning to ACTGTAGGCT, the switch fluorescence ratio was 1.09.
Consider AAAGCACTGT, for which the switch fluorescence ratio stood at 1.07.
For TGCGTGCTTA, the switch fluorescence ratio stood at 0.961.
The figure for ACCGAGGGTA is 1.05; for CATAGAGGCG it is 0.985; for GGATTGAGTA it is 1.01.
Next, CATCTAATGT: 1.07; TATCGGTGCG: 0.964.
Regarding AAGTAGCCCG, the switch fluorescence ratio worked out at 1.01.
Turning to TGGAAGAAGA, the switch fluorescence ratio came out at 1.1.
For the sequence GTTGCAATCG, the switch fluorescence ratio was 1.23.
As to CAATATTCGC, the switch fluorescence ratio came out at 1.02.
The figure for GTGCCGCCGA is 1.03.
With TATCTCACTT, the switch fluorescence ratio stood at 1.03.
Consider AAAATATATC, for which the switch fluorescence ratio was found to be 1.01.
Regarding TTTTCGTAAG, the switch fluorescence ratio came out at 0.998.
On to CGTTAAGGAT, for which the switch fluorescence ratio stood at 0.976.
Take GCCATTTGTA: the switch fluorescence ratio was determined as 0.958.
On to GTGTGCACCA, for which the switch fluorescence ratio came to 1.02.
The figure for AAACCGGGTA is 1.97; for GCCCATAATA it is 1.03; for GTCGTTTGCA it is 1.03.
Next, ATGGCTCAAC: 1.02.
The figure for ATGCCAAAAA is 1.
